Measured values taken from patent US20230330254A1 (Regeneron Pharmaceuticals, Inc., priority 2022, published 2023).
Marks after values point to notes of the source that are not given here.

Tests used:
HEK293/CRE-Luc cells [1] = assay: Flow cytometry cell binding, HEK293/CRE-Luc control cells (Example 18); parameters: species or system human; conditions: Table 30, control cells lacking GLP1R; for EC50: no unit printed in table (text reads values as M); for HEK293/CRE-Luc Flow S/N: signal to noise
Procedure: GLP1R agonist linker payloads were conjugated to anti-GLP1R antibodies via N-terminal heavy or light chain Glutamine (Q) tags. Several resulting anti-GLP1R-GLP1R agonist antibody tethered drug conjugates (ATDCs) and their unconjugated parental antibodies were tested for cell-based binding activity. The cell surface binding of the anti-GLP1R ATDCs to human GLP1R (HEK293/CRE-Luc/hGLP1R), cynomolgus GLP1R (HEK293/CRE-Luc/mfGLP1R), and control cells lacking expression of GLP1R (HEK293/CRE-Luc) was assessed via flow cytometry. For the assay, 61,000-230,000 cells were suspended in PBS, w/2% FBS and 0.2% sodium azide (staining buffer) in 96 well V-bottom plates and incubated for 30 minutes at 4° C. with three-fold serial dilutions of the anti-GLP1R ATDCs, non-binding control ATDCs, or unconjugated anti-GLP1R antibodies. The last well in each row of the plate served as a blank control containing only secondary antibody and was plotted as a continuation of the 3-fold serial dilution. […] Cells were then washed once and stained with a cell viability dye (Live/dead Fixable Green Dead Cell Stain Kit for 488 nm excitation, Molecular Probes cat #L34970) at 1× in PBS for 20 minutes at 4° C. Cells were washed once in staining buffer, fixed for 20 minutes at 4° C. using a 50% solution of Cytofix (BD Biosciences, Cat #554655) diluted in PBS, and washed again in staining buffer. Samples were filtered through Pall 96 well plate PP/PE mesh filter system and collected in Costar 96 well plate. Samples were run on the iQue flow cytometer (Intellicyte) and results were analyzed using Forecyte analysis software (Intellicyte) to calculate the mean fluorescent intensity (MFI) after gating for live cells. EC50 values were determined using a four-parameter logistic equation over a 10-point dose response curve (GraphPad Prism). The signal to noise (S/N) was determined by taking the ratio of the highest MFI on the dose response curve to the MFI in the secondary alone wells.

[2] = biological target: T1, hGLP1R-MMH (N-terminal region of human GLP1R) (Homo sapiens, UniProt P43220); assay: Biacore binding kinetics (surface plasmon resonance); conditions: 25° C.
T1 construct: the N-terminal ectodomain of human GLP1R expressed with a myc-myc hexahistidine tag
T1 sequence (P43220 24-139 limits assumed): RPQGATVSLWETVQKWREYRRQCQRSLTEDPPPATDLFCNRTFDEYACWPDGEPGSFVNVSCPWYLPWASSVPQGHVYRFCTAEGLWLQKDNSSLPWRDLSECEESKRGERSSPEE
Procedure: The equilibrium dissociation constant (KD) for GLP1R binding to different unconjugated GLP1R monoclonal antibodies (mAbs) or to GLP1R antibody tethered drug conjugates (ATDCs) was determined using a real-time surface plasmon resonance biosensor using a Biacore 3000, Biacore S200, Biacore 4000, Biacore T-200, or a Sierra Sensor MASS-2 instrument. All binding studies were performed in 10 mM HEPES, 150 mM NaCl, 3 mM EDTA, and 0.05% v/v Surfactant Tween-20, pH 7.4 (HBS-ET) running buffer at 25° C. The Biacore CM5 sensor chip surface was first derivatized by amine coupling with human Fc specific mouse mAb (REGN2567) to capture different GLP1R mAbs or ATDCs. Different concentrations (100, 90, 33.3, 30, 11.1, 10, 3.7, 3.3 and 1.1 nM) of the N-terminal region of human GLP1R expressed with a myc-myc-hexahistidine tag (“hexahistidine tag” disclosed as SEQ ID NO: 441) (hGLP1R-MMH) prepared in HBS-ET running buffer were injected over the GLP1R mAb captured surface for 240 or 300 sec at a flow rate of 50 μL/min and their dissociation in HBS-ET running buffer was monitored for 10 minutes. […]
The association rate (ka) and dissociation rate (kd) were determined by fitting the real-time binding sensorgrams to a 1:1 binding model with mass transport limitation using Scrubber 2.0c curve-fitting software. […]

HEK293/CRE-Luc cells [3] = assay: Luciferase reporter assay, HEK293/CRE-Luc cells without hGLP1R (Example 11); type: cell-based, human; conditions: Table 12; Experiment D
Text: To test the activity of GLP1R agonist payloads, GLP1R agonist linker-payloads (LPs), and anti-GLP1R antibody tethered drug conjugates (ATDCs) of the disclosure, a cell-based cAMP responsive luciferase reporter assay was developed. To generate the assay cell line, the firefly luciferase gene was placed under the control of a cAMP response element (CRE) located upstream of a minimal promoter and transfected into HEK293 cells and referred to herein as HEK293/CRE-Luc cells.
Three-fold serial dilutions of free payloads or LPs were prepared in 100% DMSO, transferred to fresh assay media, and added to the cells at a final constant DMSO concentration of 0.2%. The last well in the plate served as a blank control containing only the assay media and 0.2% DMSO (untreated well) and was plotted as a continuation of the 3-fold serial dilution. Four to six hours later, luciferase activity was determined after the addition of One-Glo™ reagent (Promega, Cat #E6130) to each well. Relative light units (RLUs) were measured on an Envision luminometer (PerkinElmer) and EC50 values were determined using a four-parameter logistic equation over a 12-point dose response curve (GraphPad Prism). The signal to noise (S/N) was determined by taking the ratio of the highest RLU on the dose response curve to the RLU in the untreated wells.

[4] = Body weight in diet-induced obese GLP1R humanized mice (Example 12); type: in vivo; conditions: 25 mg/kg s.c. once on day 0
Text: (§1) To determine body weight and blood glucose lowering effects of three anti-GLP1R antibody-tethered-drug conjugates (ATDCs) in obese animals, mice homozygous for the expression of human GLP1R in place of mouse GLP1R (referred to as GLP1R humanized mice) were placed on high-fat diet (60% kcal % fat) for 6 months. Forty-four, 9-month-old male, GLP1R humanized mice were stratified into six groups of five to eight mice, based on their day 0 body weights. After the stratification, each group was subcutaneously administered with 25 mg/kg of COMP anti-GLP1R mAb1-LP4 (n=8), anti-GLP1R mAb3-LP11 (n=8), anti-GLP1R mAb4-LP11 (n=5), control anti-GLP1R mAb (n=7), isotype control mAb ATDC (n=8) or reference compound (n=8) on day 0.
(§2) The control anti-GLP1R mAb is antibody 5A10 described in US Publication No. US20060275288A1, which is incorporated herein by reference in its entirety. […] COMP anti-GLP1R mAb1-LP4 comprises the same control anti-GLP1R mAb with a N-terminal heavy chain Q-tag.
(§3) On days three and seven post administration and weekly from day fourteen to day fifty-six, body weights of the animals were recorded, and their blood glucose levels were measured with a handheld glucometer. Mean±SEM of percent changes in body weight from day 0 at each time point was calculated for each group and are shown in Table 14. Statistical analyses were performed by two-way ANOVA followed by Bonferroni post-hoc tests, comparing the control antibody group to the other five groups.

[5] = Blood glucose in diet-induced obese GLP1R humanized mice (Example 12); type: in vivo; conditions: 25 mg/kg s.c. once on day 0
Text: as §1, §2, §3

B1: REGN8072 unconjugated Ab (antibody)
heavy: QVQLVESGGGVVQPARSLRLSCAASGFAFSRSAMHWVRQAPGKGLEWVAVISYDGSNKYYTDSVKGRFTISRDNSKNTLYLQMNTLRAEDTALYYCAKMYTTMDSFDYWGQGTLVTVSSASTKGPSVFPLAPCSRSTSESTAALGCLVKDYFPEPVTVSWNSGALTSGVHTFPAVLQSSGLYSLSSVVTVPSSSLGTKTYTCNVDHKPSNTKVDKRV[human IgG4 Fc with S228P (EU numbers) left out here]
light: LLQGSGDIQLTQSPSFLSASVGDRVTITCWASQGISSYLAWYQQKPGKAPKLLIYAASTLQSGVPSRFSGSGSGTEFTLTISSLQPEDFALYYCQQLNSYPRTFGQGTKVEIKRTVAAPSVFIFPPSDEQLKSGTASVVCLLNNFYPREAKVQWKVDNALQSGNSQESVTEQDSKDSTYSLSSTLTLSKADYEKHKVYACEVTHQGLSSPVTKSFNRGEC
- EC50 (HEK293/CRE-Luc cells [1]): > 100 nM
- HEK293/CRE-Luc Flow S/N (HEK293/CRE-Luc cells [1]): 2.1

B2: REGN8070 unconjugated Ab (antibody)
heavy: QVQLVESGGGVGQPGRSLRLSCAASGFTFSRNAMHWVRQAPGKGLEWVAVISYDGSNKHYADSVKGRFTISRDNSKNTLYLEMNSLRVEDTAVYYCAKGGIPFDYWGQGTLVTVSSASTKGPSVFPLAPCSRSTSESTAALGCLVKDYFPEPVTVSWNSGALTSGVHTFPAVLQSSGLYSLSSVVTVPSSSLGTKTYTCNVDHKPSNTKVDKRV[human IgG4 Fc with S228P (EU numbers) left out here]
light: LLQGSGDIVMTQSPLSSPVTLGQPASISCRSSQSLVHFDGNTYLSWLHQRPGQPPRLLIYKISNRFSGVPDRFSGSGAGTDFTLKISRVEPEDVGVYYCMHATQFPYTFGQGTKLEIKRTVAAPSVFIFPPSDEQLKSGTASVVCLLNNFYPREAKVQWKVDNALQSGNSQESVTEQDSKDSTYSLSSTLTLSKADYEKHKVYACEVTHQGLSSPVTKSFNRGEC
- EC50 (HEK293/CRE-Luc cells [1]): > 100 nM
- HEK293/CRE-Luc Flow S/N (HEK293/CRE-Luc cells [1]): 1.4

B3: H4H30452P (antibody, V domains shown)
VH: [about 100 residues left out here]GLIAPRPMGFDYWGQGTLVTVSS
VL: DIQMTQSPSSVSASVGDRVTITCRASQGINSWLAWYQQKPGKAPKLLIYAASSLQSGVPSRFSGSGSGTDFTLTISSLQPEDFATYYCHQADSFPYTFGQGTKLEIK
- Ka ([2]; association rate): 218000 M⁻¹ s⁻¹
- dissociation rate constant (kd) ([2]; dissociation rate): 0.00118 s⁻¹

B4: COMP Anti-GLP1R mAb1-LP4 (conjugate)
heavy: LLQGSGQVTLKESGPGILQPSQTLSLTCSFSGFSLSTSGTGVGWIRQPSGKGLEWLSHIWWDDVKRYNPALKSRLTISRDTSYSQVFLRIASVDTADTATYYCARILDGTGPMDYWGQGTSVTVSSASTKGPSVFPLAPCSRSTSESTAALGCLVKDYFPEPVTVSWNSGALTSGVHTFPAVLQSSGLYSLSSVVTVPSSSLGTKTYTCNVDHKPSNTKVDKRV[human IgG4 Fc with S228P (EU numbers) left out here]
light: QIVLTQSPAIMSASPGEKVTMTCSASSRVTYMHWYQQRSGTSPKRWIYDTSKLASGVPARFSGSGSGTSYSLTISSMEAEDAATYYCQQWGNNPQYTFGGGTRLEIKRRTVAAPSVFIFPPSDEQLKSGTASVVCLLNNFYPREAKVQWKVDNALQSGNSQESVTEQDSKDSTYSLSSTLTLSKADYEKHKVYACEVTHQGLSSPVTKSFNRGEC
- EC50 (HEK293/CRE-Luc cells [3]): > 20 nM
- HEK293/CRE-Luc S/N (HEK293/CRE-Luc cells [3]): 1.6
- percent body weight change from day 0, Mean ([4]; day 0): 0%
- percent body weight change from day 0, Mean ([4]; day 3): −8.8%
- percent body weight change from day 0, Mean ([4]; day 7): −14.5**** %
- percent body weight change from day 0, Mean ([4]; day 14): −19.6**** %
- percent body weight change from day 0, Mean ([4]; day 20): −18.0**** %
- percent body weight change from day 0, Mean ([4]; day 28): −13.7**** %
- percent body weight change from day 0, Mean ([4]; day 35): −11.2*** %
- percent body weight change from day 0, Mean ([4]; day 42): −8.3** %
- percent body weight change from day 0, Mean ([4]; day 49): −6.5%
- percent body weight change from day 0, Mean ([4]; day 56): −5.0%
- blood glucose level, Mean ([5]; day 0): 214
- blood glucose level, Mean ([5]; day 3): 144****
- blood glucose level, Mean ([5]; day 7): 158*
- blood glucose level, Mean ([5]; day 14): 167
- blood glucose level, Mean ([5]; day 20): 176
- blood glucose level, Mean ([5]; day 28): 197
- blood glucose level, Mean ([5]; day 35): 211
- blood glucose level, Mean ([5]; day 42): 208
- blood glucose level, Mean ([5]; day 49): 215
- blood glucose level, Mean ([5]; day 56): 196
